The assay deals with T1, human L1CAM (Neural cell adhesion molecule L1) (human, UniProt P32004 20-1257).
T1 construct: whole, on cells; also called L1CAM proteins on the cancer cell surface
As to the kind of experiment: flow cytometry on 22 cancer cell lines carrying L1CAM, fluorescent secondary antibody, compared with a control antibody. For orientation: A flow cytometer gives signals particle by particle.

T1 sequence (P32004 20-1257): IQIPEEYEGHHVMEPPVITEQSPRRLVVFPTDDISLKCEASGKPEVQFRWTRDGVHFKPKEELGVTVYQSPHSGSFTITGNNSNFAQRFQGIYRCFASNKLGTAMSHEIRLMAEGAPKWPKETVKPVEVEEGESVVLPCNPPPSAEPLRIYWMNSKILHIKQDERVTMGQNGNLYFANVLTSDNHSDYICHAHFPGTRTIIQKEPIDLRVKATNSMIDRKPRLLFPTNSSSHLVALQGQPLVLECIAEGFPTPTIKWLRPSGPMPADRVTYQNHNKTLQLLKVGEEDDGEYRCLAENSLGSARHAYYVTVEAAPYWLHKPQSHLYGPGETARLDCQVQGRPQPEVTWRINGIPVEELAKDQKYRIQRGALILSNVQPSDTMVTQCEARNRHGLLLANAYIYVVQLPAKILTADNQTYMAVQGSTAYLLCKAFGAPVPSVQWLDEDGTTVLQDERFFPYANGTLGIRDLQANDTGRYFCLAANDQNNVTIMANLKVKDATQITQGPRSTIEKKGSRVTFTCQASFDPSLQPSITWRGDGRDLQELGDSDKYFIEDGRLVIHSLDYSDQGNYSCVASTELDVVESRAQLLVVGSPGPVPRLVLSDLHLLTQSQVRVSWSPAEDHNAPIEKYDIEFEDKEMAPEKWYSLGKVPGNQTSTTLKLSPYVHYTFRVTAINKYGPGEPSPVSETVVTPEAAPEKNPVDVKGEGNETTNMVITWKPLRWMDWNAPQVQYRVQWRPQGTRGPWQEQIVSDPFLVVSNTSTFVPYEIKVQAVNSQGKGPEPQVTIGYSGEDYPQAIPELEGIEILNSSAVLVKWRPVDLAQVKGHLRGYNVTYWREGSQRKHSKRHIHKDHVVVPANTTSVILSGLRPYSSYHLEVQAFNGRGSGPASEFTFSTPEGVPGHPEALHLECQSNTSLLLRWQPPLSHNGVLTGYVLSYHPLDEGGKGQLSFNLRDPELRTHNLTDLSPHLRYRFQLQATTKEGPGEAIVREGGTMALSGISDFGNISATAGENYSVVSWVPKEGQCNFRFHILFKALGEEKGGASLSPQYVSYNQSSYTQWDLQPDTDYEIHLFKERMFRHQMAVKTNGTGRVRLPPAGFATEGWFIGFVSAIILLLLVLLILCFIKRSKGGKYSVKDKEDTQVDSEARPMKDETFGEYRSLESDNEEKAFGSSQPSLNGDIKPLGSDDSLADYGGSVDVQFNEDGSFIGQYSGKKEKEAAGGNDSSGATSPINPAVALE

B1: AFF4-CaaX (antibody, human IgG1, kappa)
heavy: QVQLQESGPGLVKPSQTLSLTCTVTGYSITSDYTWNWIRQFPGKGLEWMGYISYSGSYSYNPSLKSRVTISRDTSKNQFSLKLSSVTAADTAVYYCARSFSYSYGFAYWGQGTLVTVSSASTKGPSVFPLAPSSKSTSGGTAALGCLVKDYFPEPVTVSWNSGALTSGVHTFPAVLQSSGLYSLSSVVTVPSSSLGTQTYICNVNHKPSNTKVDKRV[… human IgG1 Fc with changes …]
light: DIQMTQSPSSLSASVGDRVTITCKASQDVSSAVAWYQQKPGKAPKLLIYSASYRYTGVPSRFSGSGSGTDFTFTISSLQPEDFATYYCQQHYSTPWTFGGGTKVEIKRTVAAPSVFIFPPSDEQLKSGTASVVCLLNNFYPREAKVQWKVDNALQSGNSQESVTEQDSKDSTYSLSSTLTLSKADYEKHKVYACEVTHQGLSSPVTKSFNRGECGGGGGGGCVIM
notes: also called AFF4-CaaX antibody; anti-L1CAM antibody
For B1, the binding result is recorded as “binds”.

Source of the values: patent publication EP4676544A1 (dated 2026).
